About 2,200 (0.71%) of roughly 310,000 compounds showed an effect of 50% or more. Effects have a minus sign here. Some of the results follow.

The target in the assay is human ether-à-go-go-related gene (hERG) potassium channel (human, UniProt Q12809). Nature of the assay: primary screen, population patch clamp on CHO cells stably expressing hERG.
Chain of human ether-à-go-go-related gene (hERG) potassium channel (Q12809 whole entry, looked up): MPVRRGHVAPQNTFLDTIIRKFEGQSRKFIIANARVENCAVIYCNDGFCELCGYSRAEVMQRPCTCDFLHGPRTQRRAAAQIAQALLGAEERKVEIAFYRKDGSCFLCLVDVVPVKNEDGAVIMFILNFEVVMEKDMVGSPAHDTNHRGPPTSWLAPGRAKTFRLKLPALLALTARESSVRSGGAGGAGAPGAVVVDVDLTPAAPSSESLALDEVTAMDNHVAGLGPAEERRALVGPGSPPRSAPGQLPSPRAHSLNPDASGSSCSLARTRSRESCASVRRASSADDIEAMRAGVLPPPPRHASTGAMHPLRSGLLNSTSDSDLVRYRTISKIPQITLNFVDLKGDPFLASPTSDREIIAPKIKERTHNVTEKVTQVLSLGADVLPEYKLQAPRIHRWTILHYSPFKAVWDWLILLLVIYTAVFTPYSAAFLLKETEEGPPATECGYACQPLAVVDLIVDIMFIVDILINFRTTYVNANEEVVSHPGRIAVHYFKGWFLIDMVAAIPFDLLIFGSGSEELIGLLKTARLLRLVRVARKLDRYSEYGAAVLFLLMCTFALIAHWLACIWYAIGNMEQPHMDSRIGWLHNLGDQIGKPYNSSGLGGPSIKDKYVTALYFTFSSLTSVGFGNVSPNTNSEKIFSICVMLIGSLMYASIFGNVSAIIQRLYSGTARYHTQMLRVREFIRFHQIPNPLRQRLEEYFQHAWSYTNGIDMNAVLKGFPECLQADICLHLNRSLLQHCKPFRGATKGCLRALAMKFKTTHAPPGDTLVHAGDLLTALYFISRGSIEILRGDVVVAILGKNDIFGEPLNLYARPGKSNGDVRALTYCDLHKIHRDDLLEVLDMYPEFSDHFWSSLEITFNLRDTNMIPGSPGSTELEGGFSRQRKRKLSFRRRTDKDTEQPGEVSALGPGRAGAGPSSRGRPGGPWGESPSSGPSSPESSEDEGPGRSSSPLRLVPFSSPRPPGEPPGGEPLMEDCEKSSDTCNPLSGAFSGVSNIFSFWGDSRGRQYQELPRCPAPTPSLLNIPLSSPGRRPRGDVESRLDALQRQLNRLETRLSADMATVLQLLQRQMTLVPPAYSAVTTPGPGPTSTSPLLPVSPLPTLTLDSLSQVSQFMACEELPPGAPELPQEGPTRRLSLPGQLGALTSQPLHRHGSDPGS
Consider `Cl.NCCCP(=O)(O)CCc1ccccc1`, for which the “hERG current change (%, negative = inhibition) at 1uM” value stood at 4.94%. With `CCOc1c(Cl)cc(C(=O)Nc2ccccc2-c2ccccc2)cc1Cl`, the “hERG current change (%, negative = inhibition) at 1uM” value turned out to be 14.4%.

On to `CCOC(=O)c1cn2nc(Oc3ccc(C(=O)OC)cc3)ccc2n1`, for which the “hERG current change (%, negative = inhibition) at 1uM” value is on record as 10.4%. For `CCOc1ccccc1OCC(=O)Nc1c(C)n(C)n(-c2ccccc2)c1=O` the value was 2.2%; for `Cc1cc(N/N=C/c2ccc(N(C)C)cc2)c2ccccc2n1`, 12.7%.

On to `COc1cccc(-n2c(-c3cccc(S(=O)(=O)N(C)C)c3)n[nH]c2=S)c1`, for which the “hERG current change (%, negative = inhibition) at 1uM” value is 16.8%. Regarding `Cn1c(=O)c2c(nc(Sc3nc4ccccc4n3CC(=O)N3CCCCC3)n2C)n(C)c1=O`, the “hERG current change (%, negative = inhibition) at 1uM” value is recorded as 0.859%. Turning to `CC1CCN(c2ccc3c(c2)S(=O)(=O)c2cccc(C(=O)NCc4cccc(F)c4)c2C3=O)CC1`, the “hERG current change (%, negative = inhibition) at 1uM” value is 13.4%. Consider `Nc1cc(C(=O)O)ccc1Nc1ccccc1`, for which the “hERG current change (%, negative = inhibition) at 1uM” value is -7.46%.

In the case of `COc1ccc(N2C(=O)CC(Sc3ncn[nH]3)C2=O)c(OC)c1` (stereo not shown), the “hERG current change (%, negative = inhibition) at 1uM” value stood at 6.05%. In the case of `CCn1ncc(C2=NOC(C(=O)Nc3ccc(C)cc3)C2)c1C` (stereo not shown), the “hERG current change (%, negative = inhibition) at 1uM” value is given as 15.6%. As for `COc1ccccc1N1C(N)=NC(N)=NC12CCCCC2.Cl`, the “hERG current change (%, negative = inhibition) at 1uM” value was determined as 17.5%. As to `N#Cc1cccc(NC(=O)COc2ccc(-n3ccnc3)cc2)c1`, the “hERG current change (%, negative = inhibition) at 1uM” value was -51%. For `CN1CCCN(C(=O)c2cc(-c3ccc(Cl)c(Cl)c3Cl)nc3ccccc23)CC1.Cl` the value was -18.7%. For `O=C(O)Cc1csc(-c2cccc(F)c2)n1` the value was 15%; for `COc1ccc(NC(=O)CN2c3cccc4cccc(c34)S2(=O)=O)c(OC)c1`, 5.94%; for `Cn1ncc2c(Nc3ccc(Cl)c(Cl)c3)ncnc21`, 17.5%. The value for `COc1ccc(C(=O)NC(C)c2nnc(SCC(=O)NC3CCCCC3)n2C)cc1` (stereo not shown) was 8.96%. In the case of `O=C(NCCCNCCCNC(=O)c1ccc(/C=N/O)nc1)c1ccc(/C=N/O)nc1`, the “hERG current change (%, negative = inhibition) at 1uM” value is on record as 7.88%.

As for `COc1ccc(C(=O)NNC(=O)CSc2nnc(C3CC3)n2C)cc1`, the “hERG current change (%, negative = inhibition) at 1uM” value is 14.5%. The value for `CC(C)(C)c1nnc(NC(=O)CS(=O)(=O)Cc2ccccc2)s1` was 14.3%. For the compound `COc1ccccc1N1CCN(C(=O)CCN2C(=O)c3cccc4cccc(c34)C2=O)CC1`, the “hERG current change (%, negative = inhibition) at 1uM” value came out at 9.15%.

For `CCOC(=O)c1c(NC(=O)c2ccc(S(=O)(=O)N3CCOCC3)cc2)sc2c1CC(C)(C)NC2(C)C`, the “hERG current change (%, negative = inhibition) at 1uM” value is reported as 11.9%. For the compound `COc1ccc(NC(=O)CSCC(=O)OCc2cccc(OC)c2OC)cc1`, the “hERG current change (%, negative = inhibition) at 1uM” value was determined as 11.6%. For `CCCNC(=O)c1ccccc1NC(=O)C1COc2ccccc2O1` (stereo not shown) the value was 7.41%. The value for `COc1ccc(/C=C/C(=O)NCC(=O)n2nc(C)cc2C)cc1` was 11.2%; that for `Cc1ccccc1SCCNC(=O)CCc1ccccc1` was 12%; that for `CCc1ccc(C(=O)NNc2ccc(F)cc2)cc1` was 9.38%. As for `COC(=O)c1nn(-c2cccc(C(F)(F)F)c2)c(=O)cc1Sc1ccccn1`, the “hERG current change (%, negative = inhibition) at 1uM” value is recorded as 0.0534%. The value for `Cc1ccc(C(=O)Nc2cccc([N+](=O)[O-])c2)cc1S(=O)(=O)Nc1cccc(C(=O)O)c1` was 12.8%; that for `CCOC(=O)Cc1csc(NC(=O)NC2(C(F)(F)F)Oc3cc(Cl)c(Cl)cc3O2)n1` was 8.86%; that for `Cc1cccc(C)c1NC(=O)Nc1ccccc1-n1ccnc1` was 4.23%. On to `O=S(=O)(/N=C(/Nc1ccccc1)c1ccccc1)c1cccs1`, for which the “hERG current change (%, negative = inhibition) at 1uM” value amounted to 7.25%.

Consider `N#C/C(=N/Nc1ccccc1[N+](=O)[O-])C(N)=S`, for which the “hERG current change (%, negative = inhibition) at 1uM” value was found to be 15%. On to `CCc1ccc(-c2cc(C)no2)cc1S(=O)(=O)Nc1ccccn1`, for which the “hERG current change (%, negative = inhibition) at 1uM” value worked out at 15.5%. `Cc1nn2c(NCCCn3ccnc3)cc(C(C)C)nc2c1-c1ccccc1`: the “hERG current change (%, negative = inhibition) at 1uM” value stood at 8.47%.

Turning to `Cn1c(SCC(=O)c2cccs2)nnc1-c1ccco1`, the “hERG current change (%, negative = inhibition) at 1uM” value stood at 15.2%. The value for `CNc1c(NC(=O)C2CCC(C)CC2)c(=O)oc2ccccc12` (stereo not shown) was 15.4%; that for `CCOc1cccc2sc(N(CCCN(C)C)C(=O)Cc3ccccc3)nc12.Cl` was -83.7%; that for `O=C(Nc1ccc(S(=O)(=O)NCc2ccco2)cc1)c1cccc(F)c1` was 1.31%. Turning to `O=C(CN1C(=O)c2ccccc2C1=O)Nc1ccccc1C(=O)N1CCCC1`, the “hERG current change (%, negative = inhibition) at 1uM” value was determined as 8.1%. As to `Cc1ccc(-c2nn3c(C)nnc3s2)cc1NC(=O)c1ccc(-c2ccc(Cl)cc2Cl)o1`, the “hERG current change (%, negative = inhibition) at 1uM” value was 1.09%.

Take `CCOc1ccccc1NC(=O)c1ccc2ccccc2c1`: the “hERG current change (%, negative = inhibition) at 1uM” value amounted to 14.2%. For `CNC(=S)N1CC2CC(C1)c1cccc(=O)n1C2` (stereo not shown) the value was 10.7%; for `COc1ccc(CNC(=O)[C@H](C)NC(=O)C2CCN(S(=O)(=O)c3ccc(F)cc3)CC2)cc1`, 14.3%. For `CCCC1S/C(=N/N=C/c2ccc(OC)cc2)N(Cc2ccccc2)C1=O` (stereo not shown) the value was 16.6%; for `COCCn1c(=O)[nH]c2cc(C(=O)N3CCN(c4cccc(Cl)c4)CC3)ccc2c1=O`, -7.95%.

As to `CCN(CC)CCC(c1cc(OC)c(OC)c(OC)c1)c1c(OC)cc(OC)c2ccc(=O)oc12` (stereo not shown), the “hERG current change (%, negative = inhibition) at 1uM” value is -25.1%. For the compound `Cc1cn(-c2cc(C(=O)Nc3ccc(C)c(NC(=O)C(=O)c4c[nH]c5ccccc45)c3)cc(C(F)(F)F)c2)cn1`, the “hERG current change (%, negative = inhibition) at 1uM” value is recorded as 12.3%. Take `COc1ccc(C2=NN(C(=O)c3ccccc3)C(c3cccc([N+](=O)[O-])c3)C2)cc1` (stereo not shown): the “hERG current change (%, negative = inhibition) at 1uM” value is given as -1.01%. For `O=C(NCCn1cccc1)c1cccc2ccccc12` the value was 8.35%; for `CCOc1ccc(C2CC(c3ccc(CC)cc3)n3nc(N)nc3N2)cc1` (stereo not shown), 5.81%; for `CCCc1c(C(=O)N/N=C/c2cccnc2)nnn1-c1nonc1N`, 16.6%. As to `O=C(Nc1ccc(S(=O)(=O)N2CCc3ccccc32)cc1)c1ccco1`, the “hERG current change (%, negative = inhibition) at 1uM” value is 7.56%.

With `CC1CCCC(NC(=O)CSC2=Nc3ccccc3C3CC=NN23)C1C` (stereo not shown), the “hERG current change (%, negative = inhibition) at 1uM” value worked out at 6.04%. Consider `COc1ccccc1C1CCCN1Cc1nc(-c2ccc(C)s2)oc1C` (stereo not shown), for which the “hERG current change (%, negative = inhibition) at 1uM” value is on record as 3.47%. The value for `COc1ccc(CNC(=O)C2CCN(S(=O)(=O)N3CCCC3)CC2)c(OC)c1` was 7.25%. Turning to `CCn1c(C)c(Br)c(=O)c(C(=O)OC)c1-c1ccc(Cl)cc1`, the “hERG current change (%, negative = inhibition) at 1uM” value was 21%. The value for `O=C(NCc1ccc2c(c1)OCO2)C1CCCN1C(=O)Nc1cccc(Cl)c1` (stereo not shown) was -5.85%; that for `O=C(Cc1cccc(C(F)(F)F)c1)Nc1ccc(S(=O)(=O)N2CCCC2)cc1` was 13%; that for `COc1ccc(C(CNC(=O)COc2ccc(Cl)c(C)c2)N2CCCCC2)cc1` (stereo not shown) was 10.4%. The value for `COc1ccc(-c2cn3c(C)c(C(=O)N4CCCc5ccccc54)sc3n2)cc1` was 1.32%; that for `CN(CCC(=O)Nc1ccc2c(c1)OCO2)Cc1ccccc1.Cl` was 5.45%; that for `COC(=O)C1(C)NC(c2cccs2)C2C(=O)N(c3ccccc3F)C(=O)C21` (stereo not shown) was 1.21%. For `COc1ccccc1C(OC(=O)c1cccs1)C(=O)NCc1ccco1` (stereo not shown) the value was 10%; for `Cc1cc(C)n(-c2nc3ccccc3nc2NCCc2ccccc2)n1`, 9.53%. In the case of `COc1ccc2oc(C(=O)Nc3ccc(N4CCOCC4)cc3)c(C)c2c1`, the “hERG current change (%, negative = inhibition) at 1uM” value is listed as 3.18%. For `CC(C)CCC(=O)N1CCC(N2CCC(C(=O)NCc3ccccn3)CC2)CC1` the value was 10.1%; for `CC(C)Oc1ccccc1/C=N/NC(=O)C1CC1`, 14.2%. The value for `Cc1occc(=O)c1OCc1c(F)cccc1Cl` was 7.18%; that for `COc1ccc(CCNC(=O)CSc2ccccn2)cc1OC` was 15.3%; that for `CCCN(C(=O)Cn1c(C(F)(F)F)nc2ccccc21)C1CCS(=O)(=O)C1` (stereo not shown) was -0.749%. The value for `COCCn1c(Sc2ccccc2)nc2c1c(=O)[nH]c(=O)n2C` was 6.26%; that for `CCS(=O)(=O)c1nc2ccccc2n1CC(=O)N1CCOCC1` was 6.39%.

Consider `CC(C)NC(=O)COc1cccc2ccccc12`, for which the “hERG current change (%, negative = inhibition) at 1uM” value was 6.11%.

For `CCOC(=O)N1CCN(C(=O)c2cc3ccccc3o2)CC1`, the “hERG current change (%, negative = inhibition) at 1uM” value amounted to 18.5%. Regarding `Cc1cccc(C)c1NC(=S)N/N=C/c1ccc(C(=O)O)cc1`, the “hERG current change (%, negative = inhibition) at 1uM” value came out at 8.3%. For `OC(CNCc1ccccn1)c1ccccc1` (stereo not shown) the value was 5.57%. The value for `COc1ccc(CCNC(=O)CC2SC(=NCCC(C)C)NC2=O)cc1OC` (stereo not shown) was -1.71%; that for `COc1ccc(C2/C=C\CN(CC3CC3)CC(=O)N2Cc2ccc(F)cc2)cc1` (stereo not shown) was 8.56%; that for `O=C(O)C(=O)O.c1ccc(CNc2nc(CN3CCOCC3)nc3scc(-c4ccccc4)c23)cc1` was 1.13%. For the compound `CC1=C(C(=O)OCC2CCCO2)C(c2ccncc2)C2=C(CCCC2=O)N1` (stereo not shown), the “hERG current change (%, negative = inhibition) at 1uM” value is recorded as 25.4%. For `O=S(=O)(Nc1cccnc1Cl)c1ccc(F)cc1` the value was 12.7%. Take `CCOC(=O)N/N=C(\C)c1ccc(C)c([N+](=O)[O-])c1`: the “hERG current change (%, negative = inhibition) at 1uM” value is 5.33%. The value for `COC(=O)C(CCSC)NC(=O)c1cn(-c2ccc(OC)cc2)c(=O)c2ccccc12` (stereo not shown) was 19.2%.

Turning to `CCOc1ccc(S(=O)(=O)N2CCN(C(=O)Cc3ccc(S(=O)(=O)N4CCOCC4)s3)CC2)cc1`, the “hERG current change (%, negative = inhibition) at 1uM” value came to 5.95%. As for `c1ccc(Sc2cnc3ccccc3n2)cc1`, the “hERG current change (%, negative = inhibition) at 1uM” value turned out to be 13.9%. With `COc1ccc(C2C(C(=O)c3sc(C)nc3C)=C(O)C(=O)N2CCCn2ccnc2)cc1` (stereo not shown), the “hERG current change (%, negative = inhibition) at 1uM” value was 11.9%.

The values above are taken from paper PMC4336329 (PLoS ONE, 2015).
